Hit rate of the full screen: of about 1,900 compounds, about 40 (2%) showed an effect of 50% or more. The list shows a part of the results.

Sequence of human SGLT1 (hSGLT1) (P13866 whole entry, looked up): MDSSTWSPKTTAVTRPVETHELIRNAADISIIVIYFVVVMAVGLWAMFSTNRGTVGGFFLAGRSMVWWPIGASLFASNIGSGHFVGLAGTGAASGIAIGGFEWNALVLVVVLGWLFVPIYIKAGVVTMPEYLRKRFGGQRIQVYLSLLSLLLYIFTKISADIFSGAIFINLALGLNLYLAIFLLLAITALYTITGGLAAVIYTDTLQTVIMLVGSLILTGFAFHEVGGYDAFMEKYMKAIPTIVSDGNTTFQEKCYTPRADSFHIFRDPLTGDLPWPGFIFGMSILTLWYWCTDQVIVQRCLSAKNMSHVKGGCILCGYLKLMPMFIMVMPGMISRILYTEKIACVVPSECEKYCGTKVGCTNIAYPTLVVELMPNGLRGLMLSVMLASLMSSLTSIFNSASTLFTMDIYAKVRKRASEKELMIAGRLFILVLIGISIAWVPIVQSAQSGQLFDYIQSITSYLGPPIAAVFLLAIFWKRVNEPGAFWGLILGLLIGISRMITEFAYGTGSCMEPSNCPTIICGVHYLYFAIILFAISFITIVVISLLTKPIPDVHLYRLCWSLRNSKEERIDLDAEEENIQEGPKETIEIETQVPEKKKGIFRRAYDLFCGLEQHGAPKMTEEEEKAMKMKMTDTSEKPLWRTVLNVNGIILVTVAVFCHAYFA

In the experiment the target is human SGLT1 (hSGLT1) (human, UniProt P13866). In words: primary screen, percent of control activity; higher = less effect of the substance. Set-up: single well. The note with it: 50 µM. In a few lines:
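Single-point screen at 50 µmol/L in CHO-hSGLT1 cells, with 160 µmol/L 1-NBD-glucose in glucose-free DMEM for 90 min at 37°C. Fluorescence from isopropanol extracts was calibrated, and CHO wild-type uptake was subtracted. Data are percent of uptake without compound.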
Consider `CC1=C2C(O)C(=O)OC3CC4C(C)(C)C(=O)C=C[C@]4(C)C(CC1)[C@]23C` (stereo partly shown), for which the “NORMALIZED SGLT1 ACTIVITY (%)” value amounted to 141%.

In the case of `CCCCCC(C)N.O=S(=O)(O)O` (stereo not shown), the “NORMALIZED SGLT1 ACTIVITY (%)” value is on record as 109%.

For `CCn1cc(C(=O)O)c(=O)c2cnc(N3CCNCC3)nc21`, the “NORMALIZED SGLT1 ACTIVITY (%)” value was determined as 143%.

Turning to `O=C([O-])c1ccccc1O.[Na+]`, the “NORMALIZED SGLT1 ACTIVITY (%)” value is reported as 105%.

In the case of `CCCCC(=O)O[C@]1(C(=O)CO)[C@@H](C)C[C@H]2[C@@H]3CCC4=CC(=O)C=C[C@]4(C)[C@@]3(F)[C@@H](O)C[C@@]21C`, the “NORMALIZED SGLT1 ACTIVITY (%)” value turned out to be 207%.

In the case of `CNC(=O)O/N=C/C(C)(C)SC`, the “NORMALIZED SGLT1 ACTIVITY (%)” value was found to be 139%.

For `CC(=O)Oc1ccc2c(c1)CCC1C2CC[C@]2(C)C(=O)CCC12` (stereo partly shown), the “NORMALIZED SGLT1 ACTIVITY (%)” value is 143%.

Turning to `CCCCCCCCCCCCCCCC[N+](C)(C)C.[Br-]`, the “NORMALIZED SGLT1 ACTIVITY (%)” value came to 19%.

Turning to `CC(CC(O)C1OC1(C)C)[C@@H]1CCC2(C)C3=CCC4C(C)(C)C(=O)CCC4(C)C3CC[C@@]12C` (stereo partly shown), the “NORMALIZED SGLT1 ACTIVITY (%)” value came out at 114%.

Regarding `O=C(NC(Cc1cc(=O)[nH]c2ccccc12)C(=O)O)c1ccc(Cl)cc1` (stereo not shown), the “NORMALIZED SGLT1 ACTIVITY (%)” value turned out to be 86%.

For `O=C1c2ccccc2C(=O)c2ccccc21`, the “NORMALIZED SGLT1 ACTIVITY (%)” value is listed as 172%.

As to `O=C(O)c1cc(O)c2c(c1)[C@H]([C@H]1c3cc(C(=O)O)cc(O)c3C(=O)c3c(O[C@@H]4O[C@H](CO)[C@@H](O)[C@H](O)[C@H]4O)cccc31)c1cccc(O[C@@H]3O[C@H](CO)[C@@H](O)[C@H](O)[C@H]3O)c1C2=O`, the “NORMALIZED SGLT1 ACTIVITY (%)” value is listed as 96%.

Turning to `CN1CCc2cc3c(cc2C1O)OCO3.Cl` (stereo not shown), the “NORMALIZED SGLT1 ACTIVITY (%)” value is recorded as 163%.

Regarding `COC(=O)CCC(=O)O[C@H]1CCC2(C)C(CCC3C2C(=O)[C@@H](O)C2(C)C3CC3OC4(CCC(C)CO4)[C@@H](C)C32)C1` (stereo partly shown), the “NORMALIZED SGLT1 ACTIVITY (%)” value is recorded as 149%.

In the case of `CN1CCc2cccc3c2C1Cc1ccc(O)c(O)c1-3.Cl` (stereo not shown), the “NORMALIZED SGLT1 ACTIVITY (%)” value was 137%.

For the compound `NC(=O)N/N=C/c1ccc([N+](=O)[O-])o1`, the “NORMALIZED SGLT1 ACTIVITY (%)” value came to 182%.

With `O=C(O)CCCN1C(=O)c2cccc3cccc(c23)C1=O`, the “NORMALIZED SGLT1 ACTIVITY (%)” value was 203%.

With `CO/N=C1\CN(c2nc3c(cc2F)c(=O)c(C(=O)O)cn3C2CC2)CC1CN.CS(=O)(=O)O` (stereo not shown), the “NORMALIZED SGLT1 ACTIVITY (%)” value came to 157%.

`O=c1oc2c(O)c(O)cc3c(=O)oc4c(O)c(O)cc1c4c23`: the “NORMALIZED SGLT1 ACTIVITY (%)” value was 95%.

As to `COc1c(O)cc2c(-c3ccccc3)cc(=O)oc2c1OC`, the “NORMALIZED SGLT1 ACTIVITY (%)” value is listed as 194%.

Consider `O=C(O)/C=C/c1ccc(O)c(O)c1`, for which the “NORMALIZED SGLT1 ACTIVITY (%)” value turned out to be 110%.

With `Nc1ncnc2c1ncn2[C@@H]1O[C@H](COP(=O)(O)O)[C@@H](O)[C@H]1O`, the “NORMALIZED SGLT1 ACTIVITY (%)” value was found to be 135%.

As for `CN(C)CCc1c[nH]c2ccc(C[C@H]3COC(=O)N3)cc12`, the “NORMALIZED SGLT1 ACTIVITY (%)” value came out at 101%.

As for `COc1ccc2c(c1)c(CC(=O)OCC(=O)O)c(C)n2C(=O)c1ccc(Cl)cc1`, the “NORMALIZED SGLT1 ACTIVITY (%)” value stood at 128%.

Regarding `O=c1[nH]c(=O)n([C@H]2C[C@H](O)[C@@H](CO)O2)cc1F`, the “NORMALIZED SGLT1 ACTIVITY (%)” value came to 122%.

The values are drawn from article PMC6664820, “Novel natural and synthetic inhibitors of solute carriers SGLT1 and SGLT2” (Pharmacology Research & Perspectives, 2019).
